# The whole screen tested about 310,000 compounds, of which about 18,000 (5.8%) were called active. The shares of active, inactive and inconclusive entries below differ from those in the screen. Calls come from the whole dose curve; as a rule, active = well fitted inhibition curve with a large enough effect; inconclusive = small, poorly fitted or top-dose-only effect, or another doubt; inactive = no such curve, though single readings can be large or run the other way. No potency is given beside an inconclusive call; the fits are too rough.
# Assay: Primary qHTS for delayed death inhibitors of the malarial parasite plastid, 48 hour incubation
# Conditions: P. falciparum luciferase growth in erythrocytes; series mostly up to 28.7 µM; activity change, negative = inhibition: at the top concentration
# Method in brief: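 Growth was read as firefly luciferase luminescence after a 48 h, 37 C, 5% CO2 exposure of compounds to reporter-bearing P. falciparum cultures (0.1% parasitemia, 2% hematocrit final) in Albumax-supplemented RPMI 1640.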
# % is set by controls: 0 for no effect and ±100 for the full control effect; potency is the fitted concentration of half-maximal effect; tags give direction and shape of the fitted curve.
Compound,Potency,"activity change, negative = inhibition"
O=C(CSc1nnc2c(n1)[nH]c1ccc(S(=O)(=O)N3CCOCC3)cc12)Nc1ccc(F)c(F)c1,"inconclusive [inhibitor, partial curve, poor fit]",–
O=c1[nH]nc(Cc2ccccc2)c2ccccc12,–,inactive: 4.81%
O=C1OCCN/C1=C\C(=O)c1ccc(Cl)cc1,–,inactive: 100%
Cc1cccc(OCC(=O)NNC(=O)C2CCN(c3ncnc4sc(C)c(C)c34)CC2)c1,"inconclusive [inhibitor, partial curve]",–
CCOc1ccc(NC(=O)c2sc3nc(N4CCOCC4)c4c(c3c2N)CCCC4)cc1,"inconclusive [inhibitor, single point]",–
COc1ccc(CNC(=O)CN(C)S(=O)(=O)c2ccc(Br)s2)cc1,–,inactive: 18.9%
Cc1ccc(S(=O)(=O)NCc2ccccc2)cc1C(=O)N1CCN(c2ccccc2)CC1,"inconclusive [inhibitor, single point]",–
O=C(Nc1ccc(Cl)cc1)NC1(C(=O)NCCCN2CCOCC2)CCCCC1,"inconclusive [inhibitor, partial curve]",–
C1CCC(Nc2nc3nonc3nc2N2CCSCC2)C1,"inconclusive [inhibitor, full curve, poor fit]",–
N#Cc1c(N)sc2c1CCN(C(=O)OCc1ccccc1)C2,"inconclusive [inhibitor, single point]",–
CCN(CCCNC(=O)C1CCN(C(=O)c2cc3sccc3n2C)CC1)Cc1ccccc1,"inconclusive [inhibitor, partial curve, poor fit]",–
COc1ccccc1N1CCN(C(=O)c2ccc(Cl)c(S(=O)(=O)N3CCOCC3)c2)CC1,"inconclusive [inhibitor, single point]",–
O=C(Nc1cc(-c2nc3ncccc3o2)ccc1Cl)c1cccs1,"inconclusive [inhibitor, partial curve]",–
CN1c2ccsc2C(O)=C(C(=S)Nc2ccccc2)S1(=O)=O,"inconclusive [inhibitor, single point]",–
COc1ccccc1CNC(=O)C1CSC2(C)CCC(=O)N12 (centres undefined),"inconclusive [inhibitor, single point]",–
CCN1c2ccccc2NC2C1C(C(C)=O)C(=O)N2c1ccc(Cl)cc1 (centres undefined),active: 13.1 µM,–
Cc1ccc(N2C(=O)Nc3ccccc3S2(=O)=O)cc1Cl,–,inactive: 12.1%
CC1(C)CC(=O)C(C=NCCN2CCN(C(=S)Nc3ccc(F)cc3)CC2)=C(O)C1,"inconclusive [inhibitor, partial curve, poor fit]",–
CCN(Cc1cnn(C)c1)Cc1nc(C(c2ccccc2)c2ccccc2)no1,"inconclusive [inhibitor, partial curve, poor fit]",–
Cc1ccc(CN2CCN(CCCc3ccccc3)CC2CCO)cc1 (centres undefined),"inconclusive [inhibitor, single point]",–
CCOc1ccc(C(=O)NCC(=O)OCc2c(C)noc2C)cc1OCC,–,inactive: -18.7%
CN(C)CCCNC(=O)c1ccc(=O)[nH]n1,"inconclusive [inhibitor, partial curve, poor fit]",–

Compound,Potency,"activity change, negative = inhibition"
CCc1ccc(C(=O)COC(=O)c2cc([N+](=O)[O-])ccc2N2CCOCC2)cc1,"inconclusive [inhibitor, single point]",–
CC1CCCCC1NS(=O)(=O)c1ccc2c(c1)CCC(=O)N2 (centres undefined),"inconclusive [inhibitor, single point]",–
CCOC(=O)c1cnc2c(C(=O)OC)cccc2c1NCc1ccco1,"inconclusive [inhibitor, single point]",–
COc1ccccc1C(=O)NC(=O)CSc1nncn1C(C)C,–,inactive: -4.25%
COc1ccc(C(=O)NCC(=O)N2CCC(Cc3ccccc3)CC2)cc1OC,"inconclusive [inhibitor, single point]",–
CCOc1cc(/C=N/NC(=O)C(=O)N2CCCC2)ccc1O,–,inactive: 2.67%
COc1ccc(C(=O)NCCCc2nc3ccccc3n2Cc2ccccc2C)cc1OC,"inconclusive [inhibitor, partial curve, poor fit]",–
CCN(CC)c1ccc(/C=C2\SC(=O)N(C(C)C)C2=O)o1,"inconclusive [inhibitor, partial curve, poor fit]",–
Cc1nc(-n2nnc3cc(C)c(C)cc32)c2c3c(sc2n1)CCCC3,"inconclusive [inhibitor, single point]",–
COc1ccc(C(=O)/C=C2\NCCc3cc(OC)c(OC)cc32)cc1OC,active: 10.4 µM,–
CCN(CC)CCn1c2ccccc2c2cnc(N=CN(C)C)c(C#N)c21,"inconclusive [inhibitor, single point]",–
O=C(NCCCn1ccnc1)/C(=C/c1ccco1)NC(=O)c1ccco1,–,inactive: 3.49%
COCCN(C(=O)COC(=O)/C=C/c1ccc2c(c1)OCO2)c1c(N)n(Cc2ccccc2)c(=O)[nH]c1=O,–,inactive: -4.48%
O=C(Nc1ccccn1)c1cc(-c2cccnc2)nc2ccc(Br)cc12,active: 3.7 µM,–
COc1ccc(S(=O)(=O)N2CCCC(C(=O)NCc3cccnc3)C2)cc1OC (centres undefined),–,inactive: -20.3%
COc1ccc(-n2ccc(-c3nn(-c4cccc(C(F)(F)F)c4)ccc3=O)n2)cc1,active: 7.38 µM,–
CCOc1ccc(C(=O)NC(=S)Nc2ccc(N3CCOCC3)c(Cl)c2)cc1[N+](=O)[O-],–,inactive: 0.0077%
C=C1C(=O)C=C[C@]2(C)C[C@@H]3OC(=O)[C@](C)(O)[C@H]3C[C@@H]12,active: 11.7 µM,–
C/C(=N/NS(=O)(=O)c1cccc([N+](=O)[O-])c1)c1c[nH]c2ccccc12,–,inactive: 11.4%
CC(=O)Nc1ccc(Sc2ccccc2C(=O)Nc2ccc(F)cc2)cn1,"inconclusive [inhibitor, single point]",–
CCC(=O)N1CCC(NC(=O)Nc2ccc(OC(F)(F)F)cc2)CC1,"inconclusive [inhibitor, single point]",–
FC(F)Sc1ccc(N=C2NN=C(c3ccc4c(c3)OCCO4)CS2)cc1,"inconclusive [inhibitor, partial curve]",–

# — PubChem BioAssay AID504832 (National Center for Advancing Translational Sciences (NCATS), 2011)
